Assay in all cases: Primary Screen for Target Class Profiling of Small Molecule Inhibitors of Methyltransferases
The target of assay [1] is Glycine N-methyltransferase (Homo sapiens) (UniProt Q14749). Conditions: purified enzyme, MTase-Glo SAH luminescence; measured here: GNMT inhibition; at 40 µM; stronger effect = lower value. In a few lines:
(§1)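 Each enzyme was reacted with SAM and its substrate, with compounds tested once at 40 uM; SAH formed was read by MTase-Glo luminescence.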

The target in assay [2] is Guanidinoacetate N-methyltransferase (Homo sapiens) (UniProt Q14353). The settings on record: purified enzyme, MTase-Glo SAH luminescence; measured here: GAMT inhibition; at 40 µM; stronger effect = lower value. In a few lines:
as §1

Assay [3] addresses Histamine N-methyltransferase (Homo sapiens) (UniProt P50135). The settings on record: purified enzyme, MTase-Glo SAH luminescence; measured here: HNMT inhibition; at 40 µM; stronger effect = lower value. In a few lines:
as §1

For assay [4], the target named is Nicotinamide N-methyltransferase (Homo sapiens) (UniProt P40261). The settings on record: purified enzyme, MTase-Glo SAH luminescence; measured here: NNMT inhibition; at 40 µM; stronger effect = lower value. In a few lines:
as §1

The target of assay [5] is Phenylethanolamine N-methyltransferase (Homo sapiens) (UniProt P11086). Conditions: purified enzyme, MTase-Glo SAH luminescence; measured here: PNMT inhibition; at 40 µM; stronger effect = lower value. Put shortly:
as §1

“And” between values parts separate entries of the source, which are not always exact repeats. Equal values may be shown once. This is one part of the list. These are further read-outs of the screen, such as a control signal, another cell line or another target. No call is given for them.
On the % scale 0 is the no-effect control and ±100 the full control effect.

As for `CCOc1ccc(Nc2nc3c(S(=O)(=O)c4ccccc4)nnn3c3ccccc23)cc1`, the activity change, negative = inhibition in assay [1] was -5.58%; in assay [2] it was 3.45%; in assay [3], -3.74%; in assay [4], -8.72%; in assay [5], -5.09%.

With `CC(C)CNC(=O)c1ccc2c(=O)n(C(C)C)c3nn(CC(=O)NC(C)(C)C)c(=O)n3c2c1`, the activity change, negative = inhibition in assay [1] worked out at 6.47%; in assay [2], 1.25%; in assay [3], 11.4%; in assay [4], 2.64%; in assay [5], 7.29%.

For `CC1(C(=O)NC2CCCCCC2)Cn2c(cc3sccc32)C(=O)N1Cc1ccccc1` (stereo not given), the activity change, negative = inhibition in assay [1] was 5.82%; in assay [2], 0.709%; in assay [3], 7.41%; in assay [4] it was -1.93%; in assay [5], 3.79%.

Take `CCOCCCNC(=O)Cn1ccc2cc(S(=O)(=O)N3CCCCC3)ccc21`: the activity change, negative = inhibition was 5.46% in assay [1]; 0% in assay [2]; 0.94% in assay [3]; 4.31% in assay [4]; 1.27% in assay [5].

Turning to `CNS(=O)(=O)CCc1ccc2[nH]cc(C3CCN(C)CC3)c2c1`, the activity change, negative = inhibition in assay [1] is -3.56% and 3.06%; in assay [2], 4.57% and 7.73%; in assay [3] it was -19.6% and -9.73%; in assay [4], -4.09% and -4.41%; in assay [5] it was 8.45% and 7.33%.

As to `Cc1nc2ccccc2n1CCNS(=O)(=O)c1cccc(Cl)c1`, the activity change, negative = inhibition is -4.99% in assay [1]; 1.06% in assay [2]; -3.73% in assay [3]; -7.92% in assay [4]; -1.63% in assay [5].

Regarding `CC(C)(C)NC(=O)N1CCCC(c2nc(CCOCC3CC3)no2)C1` (stereo not given), the activity change, negative = inhibition in assay [1] was -4.22%; in assay [2], -2.24%; in assay [3], 0.073%; in assay [4], -1.85%; in assay [5], 1.93%.

On to `CCCCNC(=O)[C@@H]1Cc2ccccc2N1C(=O)[C@@H](N)CC`, for which the activity change, negative = inhibition in assay [1] is -1.74%; in assay [2] it was -0.149%; in assay [3], 4.14%; in assay [4], -12.2%; in assay [5], 2.57%.

As for `O=C(c1nc(-c2ccc(Cl)cc2Cl)c2cnccn12)N1CCOCC1`, the activity change, negative = inhibition was -7.67% in assay [1]; -6.08% in assay [2]; -4.4% in assay [3]; -18.8% in assay [4]; -8.19% in assay [5].

As to `C=CCNC(=O)c1cc2n(n1)CC(C)(C(=O)NCc1ccccc1)N(C)C2=O` (stereo not given), the activity change, negative = inhibition was -5.02% in assay [1]; 0.91% in assay [2]; -2.13% in assay [3]; -5.63% in assay [4]; -3.1% in assay [5].

As for `C=CC(C)(O)CO[C@@H]1O[C@H](CO)[C@@H](O)[C@H](O)[C@H]1O` (stereo not given in full), the activity change, negative = inhibition in assay [1] is 0.242%; in assay [2], -1.07%; in assay [3] it was 9.12%; in assay [4], -13%; in assay [5], -4.94%.

In the case of `COC(=O)COc1ccc(CC2C(=O)NCCc3ccccc3OCC(=O)N2C)cc1` (stereo not given), the activity change, negative = inhibition is -1.59% in assay [1]; -1.62% in assay [2]; 0.671% in assay [3]; -7.2% in assay [4]; -10.5% in assay [5].

With `O=C(Cn1c(=O)oc2cc(S(=O)(=O)N3CCCC3)ccc21)Nc1ccccc1F`, the activity change, negative = inhibition is 0.527% in assay [1]; 2.64% in assay [2]; 3.43% in assay [3]; 1.48% in assay [4]; -4.17% in assay [5].

For `Cc1ccccc1CN1C(=O)c2cc(-c3ccccc3)nn2CC1(C)C(=O)NCc1ccccc1` (stereo not given), the activity change, negative = inhibition in assay [1] was 2.11%; in assay [2] it was 4.47%; in assay [3], 1.35%; in assay [4], -2.99%; in assay [5] it was -4.97%.

Take `CC(O)C(O)[C@H]1CNc2nc(N)[nH]c(=O)c2N1` (stereo not given in full): the activity change, negative = inhibition in assay [1] was -31.6%; in assay [2], 7.98%; in assay [3], 3.51%; in assay [4] it was -1.77%; in assay [5], 11.1%.

Take `Nc1nc(NC2CC2)cc(-c2cccc(Cl)c2Cl)n1`: the activity change, negative = inhibition in assay [1] was -4.35%; in assay [2] it was 7.52%; in assay [3] it was -3.55%; in assay [4], -60.6%; in assay [5], -8.23%.

As to `Cc1ccc(NC(=O)CSc2nnc3n(CC(C)C)c(=O)c4cc(F)ccc4n23)c(Cl)c1`, the activity change, negative = inhibition in assay [1] was -5.81%; in assay [2], 2.51%; in assay [3], 3.71%; in assay [4], -14.5%; in assay [5], -1.33%.

Take `N#C/C(=C1\Nc2ccccc2S1)c1ccnc(NCCc2cccnc2)n1`: the activity change, negative = inhibition in assay [1] is -73.3%; in assay [2] it was 3.83%; in assay [3], -38.6%; in assay [4], -45.3%; in assay [5], -20%.

Regarding `CC(C)S(=O)(=O)NC[C@H](C)c1ccc(NC(=O)c2cc(F)cc(F)c2)cc1`, the activity change, negative = inhibition was 5.95% in assay [1]; 4.75% in assay [2]; 10% in assay [3]; -7.22% in assay [4]; 0.916% in assay [5].

With `CCCn1cc(C(=O)N2CC(=O)N(c3cccc(C)c3)CC2C)c(C)n1` (stereo not given), the activity change, negative = inhibition in assay [1] was -5.16%; in assay [2], -8.24%; in assay [3] it was -11.5%; in assay [4], -12.5%; in assay [5], 7.93%.

In the case of `Cc1ccccc1N1C(=O)CSc2c(c3ccccc3n2C)C1C(=O)NCc1ccccc1` (stereo not given), the activity change, negative = inhibition was 0.692% in assay [1]; 4.88% in assay [2]; -1.31% in assay [3]; -2.99% in assay [4]; -1.32% in assay [5].

For `COc1cccc(CSc2nnc3n(CC(C)C)c(=O)c4ccc(C(=O)NC(C)C)cc4n23)c1`, the activity change, negative = inhibition in assay [1] is 2.94%; in assay [2], 3.8%; in assay [3] it was 5.3%; in assay [4], -0.227%; in assay [5], -0.265%.

Take `Cc1ccc(C2NC(C(=O)O)Cc3c2[nH]c2ccccc32)cc1` (stereo not given): the activity change, negative = inhibition in assay [1] was -7.53%; in assay [2], 1.95%; in assay [3] it was 0.319%; in assay [4], -1.66%; in assay [5], -3.7%.

As to `C=CCOc1ccc(-c2nnc(CCC(=O)NCCOc3ccccc3)c(=O)[nH]2)cc1`, the activity change, negative = inhibition in assay [1] was -9.42%; in assay [2], -12.8%; in assay [3], -9.58%; in assay [4], -7.7%; in assay [5], -11.6%.

Regarding `CCOc1ccc(N2C(=O)Cn3cccc3C2C(=O)NC2CCCC(C)C2C)cc1` (stereo not given), the activity change, negative = inhibition in assay [1] is 6.82%; in assay [2], 0.782%; in assay [3] it was 6.61%; in assay [4], 2.57%; in assay [5] it was 1.84%.

For the molecule `CN1C(=O)c2cc(C(=O)NCCCc3ccccc3)nn2CC1(C)C(=O)NC1CCCC1` (stereo not given), the activity change, negative = inhibition amounted to 6.13% in assay [1]; 0.441% in assay [2]; 1.24% in assay [3]; 6.13% in assay [4]; 4.53% in assay [5].

Regarding `O=C(c1ccc2c(=O)nc3c(-c4ccccc4F)n[nH]n3c2c1)N1CCN(C2CCCCC2)CC1`, the activity change, negative = inhibition in assay [1] is -5.73%; in assay [2], 2.72%; in assay [3], -10.9%; in assay [4] it was 4.51%; in assay [5] it was 3.45%.

For the molecule `CCOc1ccccc1CN1C[C@@H](CO)[C@H](NC(=O)c2cccnc2)C1`, the activity change, negative = inhibition in assay [1] is -0.544%; in assay [2], 0.303%; in assay [3], -8.21%; in assay [4], 11.7%; in assay [5], 1.62%.

As for `COc1cccc(S(=O)(=O)N2CC3CN(C)CC(C2)O3)c1`, the activity change, negative = inhibition in assay [1] was 6%; in assay [2] it was 0%; in assay [3] it was 13.7%; in assay [4], 1.29%; in assay [5] it was 7.89%.

For the molecule `CN1C(=O)c2cc3ccccc3n2CC1(C)C(=O)NCC(=O)NCc1ccccc1` (stereo not given), the activity change, negative = inhibition is -1.28% in assay [1]; 4.14% in assay [2]; 0.322% in assay [3]; 7.08% in assay [4]; -3.96% in assay [5].

The values above are taken from PubChem BioAssay AID1745853 (National Center for Advancing Translational Sciences (NCATS), 2022).
